In the supplement of paper PMC3334620:
The full ranking holds about 33,000 sequences; the median of “E-score (-0.5 to 0.5)” is about -0.032, and the highest 2% start at about 0.36. This is one part of the list.

The sequences below were run against T1, Sko1 (UniProt Q02100) (assay: PBM E-score (8-mer binding enrichment) (E-score (-0.5 to 0.5)); higher = stronger / more preferred TF binding; most listed sequences are background and not binding sites). Conditions: protein concentration: 200 nM; construct: GST-full length.
T1 sequence: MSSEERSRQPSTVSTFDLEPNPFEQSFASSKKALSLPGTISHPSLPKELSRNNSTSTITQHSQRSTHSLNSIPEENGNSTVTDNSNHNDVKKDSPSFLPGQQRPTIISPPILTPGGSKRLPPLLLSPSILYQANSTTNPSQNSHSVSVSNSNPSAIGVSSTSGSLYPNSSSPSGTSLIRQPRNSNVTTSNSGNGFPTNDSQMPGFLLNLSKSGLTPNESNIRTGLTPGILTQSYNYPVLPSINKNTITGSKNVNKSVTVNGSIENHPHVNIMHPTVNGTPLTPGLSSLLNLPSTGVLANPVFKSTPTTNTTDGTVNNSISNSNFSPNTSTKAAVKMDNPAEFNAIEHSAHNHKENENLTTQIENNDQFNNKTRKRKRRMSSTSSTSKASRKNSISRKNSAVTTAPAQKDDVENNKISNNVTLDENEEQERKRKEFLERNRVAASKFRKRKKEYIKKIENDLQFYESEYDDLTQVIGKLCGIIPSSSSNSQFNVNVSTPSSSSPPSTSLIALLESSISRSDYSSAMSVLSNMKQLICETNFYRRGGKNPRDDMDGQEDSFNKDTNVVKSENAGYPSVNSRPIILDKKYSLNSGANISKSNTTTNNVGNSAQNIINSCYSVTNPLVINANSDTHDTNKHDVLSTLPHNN
Procedure, shortened: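 Universal all-10-mer Agilent arrays, double-stranded by primer extension on fresh or once-stripped slides, were probed with about 100-200 nM GST-tagged yeast transcription factors made by PURExpress. Fluorescent anti-GST detected bound protein, and masliner normalised the scans. E-scores from the Universal PBM Analysis Suite were given to each ungapped eight-base word pooled with its reverse complement.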

Row | Sequence | PBM E-score
1 | CTCCTTTA | -0.193
2 | GCTCCACA | -0.302
3 | GAAAAAGC | -0.096
4 | CAACTGAC | 0.0945
5 | ACGAAAAG | 0.205
6 | ATACTAAT | 0.138
7 | GCCATGCC | -0.22
8 | GCATTGGA | -0.0991
9 | GAAGGGTA | -0.12
10 | CATAATAC | 0.3
11 | CAGATATG | 0.0349
12 | ATTCTAGC | -0.0448
13 | TCAAAGAA | 0.115
14 | GTGGGTTA | -0.025
15 | AGGCTCAC | -0.261
16 | AGCATTTC | 0.00434
17 | CACTTAAA | 0.107
18 | CTTCGGAA | -0.083
19 | ATACTTCG | 0.109
20 | GACCCCCC | -0.34
21 | TAAAAGCA | 0.0315
22 | TCTTGGAA | 0.00281

Row | Sequence | PBM E-score
23 | AGGCCACC | -0.164
24 | AGAATAAT | 0.11
25 | GATCTTGA | 0.112
26 | AAGCGCCG | -0.14
27 | CCAACAAC | -0.0332
28 | GGACGAAA | -0.0622
29 | AAAGTTGA | 0.122
30 | CCTCTACA | -0.16
31 | ATGTTTGG | 0.142
32 | AATCCTCC | -0.215
33 | ACGGCTGA | -0.00369
34 | CCTTCTTC | -0.155
35 | AGCGACAC | 0.128
36 | AACTGTCG | -0.042
37 | AGCCGACA | -0.231
38 | CTATCTCC | -0.0881
39 | CGGTGATC | -0.231
40 | TGAACGCA | 0.16
41 | AATCTTCG | 0.12
42 | ATAAGCAT | 0.0305
43 | CAGGTGGG | -0.174
44 | CAAGATAC | 0.0986

Row | Sequence | PBM E-score
45 | ATGGAAGA | -0.0282
46 | ATGTATAA | 0.245
47 | AAGCGATG | -0.129
48 | GGAGATTA | 0.12
49 | TGGGCCAA | -0.225
50 | GAAAACAA | 0.067
51 | CATTACGC | 0.409
52 | ATGTGGGC | 0.0399
53 | CGATAGGA | -0.151
54 | ACGGACGG | -0.103
55 | CACAGCTA | -0.156
56 | GCTCCAGA | -0.126
57 | AATCCCAC | -0.00495
58 | CGTCGCCC | 0.0479
59 | CCCCAGCC | -0.251
60 | CGCACCCC | 0.00905
61 | TAACAGAA | 0.21
62 | TTAGCCAA | -0.108
63 | CCGGGTAG | -0.314
64 | CGTTCGCA | 0.168
65 | CGTAACGA | 0.366
66 | ACTGCGGC | -0.189

Row | Sequence | PBM E-score
67 | GCTGGGAA | -0.283
68 | ATCTCTCA | 0.0358
69 | TAAGTGTA | 0.148
70 | CCTTTATC | -0.205
71 | CTCCCAGC | -0.297
72 | TAAGGATA | 0.0924
73 | ATTATTCA | 0.173
74 | CATTTTGA | 0.0281
75 | CGCTTAAA | 0.0298
76 | CGACCCCG | -0.339
77 | AGACTACG | 0.136
78 | GCATACAC | 0.0391
79 | AAATATAG | 0.324
80 | GAGGCTCA | -0.271
81 | TAACAATA | 0.234
82 | CAGTGTAC | -0.0149
83 | ATGGTTGA | -0.0732
84 | ACGGCCAC | -0.146
85 | CACAACTA | 0.171
86 | CTCACAAA | -0.0672
87 | CGCGTGGC | 0.0474
88 | AATTCAGG | -0.0821

Row | Sequence | PBM E-score
89 | AATCAATG | 0.212
90 | GGTGCTAA | -0.112
91 | AATCTACG | 0.215
92 | GTGTGAGA | 0.0436
93 | AATGTTAG | 0.0972
94 | CACAAGCG | -0.164
95 | GCTCCTGA | -0.203
96 | GAGAGAAC | -0.15
97 | ACTGGAAT | -0.05
98 | CGCAGGGC | 0.00913
99 | CGGAATAG | 0.0415
100 | TATCTTCA | 0.114
101 | CGGTTGCC | -0.197
102 | ACAATGAG | -0.0472
103 | CCACGCTC | -0.181
104 | ACGGTGAC | 0.166
105 | ATCGACAC | -0.143
106 | CTTCACAA | -0.168
107 | GCGAAGTA | 0.038
108 | CACGGTGG | -0.0844
109 | ACCGGGGC | -0.318
